Results from PubChem BioAssay AID1963576 (National Center for Advancing Translational Sciences (NCATS), 2024).
Hit rate of the full screen: of about 46,000 compounds, about 60 (0.1%) were called active. Not shown: some 3% with an inconclusive outcome. The call rests on the fitted dose curve; in most records, active means well fitted inhibition curve with a large enough effect; inconclusive means small, poorly fitted or top-dose-only effect; inactive means no such curve, though single readings can be large or run the other way. The list shows a part of the results.

assay: Primary qHTS assay for Inhibitors of ovarian cancer metastasis using an organotypic tumor microenvironment (TME) model.; further: nearly all actives have a fitted effect of over 65% in size;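 on activity change, negative = inhibition: plate controls were DMSO wells for no effect and tomatine positive control wells for full effect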; details: SKOV3ip1-GFP adhesion/invasion on 3D omental model, fluorescence; series mostly up to 45.8 µM; activity change, negative = inhibition: at the top concentration
How it was run: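 Primary human omental fibroblast/mesothelial 3D culture pre-formed 48 h. SKOV3ip1-GFP cells added with compounds (0.36-46 umol/L), incubated 2 h RT/16 h 37 C, fixed; GFP cells quantified at 488/509 nm.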

outcome, inactive:
COc1ccc(NC(=O)Cn2c(=O)n(CCCC(=O)NCc3ccccc3OC)c(=O)c3ccccc32)cc1Cl, Cc1ccc(C)c(Cn2c(C(C)NC(=O)c3ccc(F)cc3)nc3ccccc32)c1 (configuration not stated), CCOc1ccccc1NC(=O)CCS(=O)(=O)c1cccc2nsnc12, Cc1cccc(N2CCN(C(=O)C3CCCN(S(=O)(=O)c4cccc5nsnc45)C3)CC2)c1C (configuration not stated), CCOc1ccccc1CNC(=O)C1CCN(S(=O)(=O)c2cccc3nonc23)CC1, CCc1ccccc1NC(=O)C(CC)Sc1ncnc2c1sc1ccccc12 (configuration not stated), Cc1ccc(NC(=O)CN2C(=O)C(c3ccc(F)cc3)=NC23CCCCC3)c(C)c1, CCOc1ccc(S(=O)(=O)N2CCN(c3cc(Cl)ccc3Cl)CC2)c2ccccc12, CCOc1cccc2cc(-c3cn4c(n3)sc3cc(C)ccc34)c(=O)oc12, Cc1ccnc(NS(=O)(=O)c2ccc(NC(=O)C(C)(C)Oc3ccc(Cl)cc3)cc2)n1, CCC(C(=O)Nc1ccc(C(=O)OC)cc1)n1nc(-c2ccc(C)cc2)c2c(c1=O)CCCC2 (configuration not stated), Cc1cc(Br)ccc1NC(=O)C(Cc1ccccc1)NS(=O)(=O)c1ccc(Br)s1 (configuration not stated), C=C(C)Cn1c(SCC(=O)c2ccc(OC)cc2)nc2sc3c(c2c1=O)CCCC3, Cc1ccc(OCC(=O)Nc2cccc(OCc3cc(=O)n4ccccc4n3)c2)cc1C, Cc1cccc(N(C)C(=O)CN2C(=O)COc3ccc(S(=O)(=O)N4CCCCCC4)cc32)c1, Cc1ccc(-c2noc(-c3ccc(N4CCC(C)CC4)c([N+](=O)[O-])c3)n2)cc1, COc1cc2c(=O)c(S(=O)(=O)c3ccc(F)cc3)cn(Cc3ccccc3C)c2cc1OC, O=C(c1ccc(Br)cc1)N(Cc1cccs1)c1ccc(F)cc1, Cc1nc2nc(SCC(=O)Nc3ccccc3Cl)nn2c(C)c1Cc1ccccc1, COc1ccc(-c2cnc(C)o2)cc1S(=O)(=O)Nc1ccc(F)cc1F, COc1ccc(N(Cc2nnc3n2CCCCC3)C(=O)Nc2cccc(C)c2)cc1Cl, CCn1c(=N)n(CC(O)COc2ccccc2)c2ccccc21 (configuration not stated), Cc1oc2c(cc(NS(=O)(=O)c3ccc(Cl)cc3)c3ccccc32)c1C(=O)OCc1ccccc1, Cc1ccc(NC(=O)Cn2c(=O)n(Cc3ccc4c(c3)OCO4)c(=O)c3ccccc32)cc1, COc1cccc(NC(=O)CCc2c(C)nc3ncnn3c2C)c1, Cc1ccccc1NC(=O)CCN1C(=O)c2ccccc2Sc2ncccc21, Cc1ccccc1C(=O)NCCc1sc(-c2ccc(Cl)cc2)nc1C, Cc1cc(C)cc(C(=O)n2nc(C)c(S(=O)(=O)N3CCOCC3)c2C)c1, Cc1ccc(-n2c(=O)c3ccc(C(=O)NCc4ccccc4Cl)cc3n(CC(=O)Nc3ccc(C)cc3C)c2=O)cc1

Activity change, negative = inhibition, inactive:
Cn1c(NCCCCO)nc2c1c(=O)n(Cc1ccc(Cl)cc1)c(=O)n2C 0.0009%, CCN(c1ccccc1)S(=O)(=O)c1cc(-c2onc(C)c2C)ccc1OC -8.62%, Cc1c2cnn(CC(=O)N3CCN(c4ccccc4)CC3)c(=O)c2c(C)n1Cc1ccc(F)cc1 -33.6%, COCCn1c(CCC(=O)Nc2cc(C)ccc2C)nc2cccnc21 -0.148%, Cc1ccc(Nc2ncnc3c2cnn3-c2ccccc2)c(C)c1 1.89%, Cc1cccc(-c2noc(CCCC(=O)NCc3ccco3)n2)c1 -2.09%, O=C1CC(c2ccccc2)Cc2[nH]c(=O)c(C(=O)Nc3ccc(OC(F)(F)F)cc3)cc21 (configuration not stated) -33.8%, CCn1c(=O)c2sccc2n2c(CCCC(=O)N3CCN(c4ccc(OC)cc4)CC3)nnc12 16.5%, CCOCCCNC(=O)C(c1ccccc1)N(Cc1cccs1)C(=O)c1ccc(NC(C)=O)cc1 (configuration not stated) -5.93%, COc1ccc(N2CCN(C(=O)c3c(C)oc4ncnc(N5CCCCC5)c34)CC2)cc1 -11.6%, CCc1cccc(NC(=O)c2nnn(Cc3ccc(SC)cc3)c2N)c1 8.92%, COc1cccc(N2C(=O)C(CC(=O)Nc3ccc(Cl)cc3)N(Cc3ccc4c(c3)OCO4)C2=O)c1 (configuration not stated) 6.09%, CC(C(=O)O)c1cccc(C(=O)c2ccccc2)c1 (configuration not stated) 7.03%, O=C(Nc1ccc(Br)cc1)C1CCCN(S(=O)(=O)c2ccc(Br)s2)C1 (configuration not stated) -22.7%, Cn1c(=O)c2c(SCC(=O)N3CCc4ccccc43)nc(-c3cccc(F)c3)nc2n(C)c1=O -9.18%, O=C(CCCCCn1c(=O)[nH]c2ccccc2c1=O)NCc1cccc(Cl)c1 -0.663%, O=c1[nH]c2ccc(NCc3ccc(-c4cccc(Cl)c4)o3)cc2[nH]1 -5.06%, CCOc1ccccc1NC(=O)CSc1nc2c(c(=O)[nH]1)CCC2 -5.41%, COc1ccc(OCc2nc3ccccc3n2C(C)c2ccccc2)cc1 (configuration not stated) 23.3%, Cc1ccccc1OC(=O)c1snnc1C 15.7%, O=C(Cc1ccccc1)N(Cc1cccnc1)c1nc2c(F)cccc2s1 9.11%, O=C(Nc1ccc(Cl)cc1F)c1oc(=O)c2ccccc2c1-c1ccccc1 -8.13%, O=C(NCc1ccc(Cl)cc1)c1ccc(CSCc2cccc(Cl)c2)o1 -23.9%, CCOc1cc(C2Nc3ccccc3-c3nnc(SCc4ccccc4)nc3O2)ccc1OC (configuration not stated) 4.39%, OCCn1cc(-c2ccc3c(c2)CCC3=NO)c(-c2ccncc2)n1 11.9%, Nc1nc(Nc2cccc(C(F)(F)F)c2)sc1C(=O)c1ccccc1 -7.27%, Cc1cc(C)c2c(CC(=O)Nc3ccc(S(=O)(=O)N4CCCC(C)C4)cc3)coc2c1 (configuration not stated) 0.643%, C#CCn1c(COc2ccccc2C)nc2ccccc21 -28.8%, COc1cccc(CNC(=O)c2cc3cccc4c3n2CC(C)S4)c1OC (configuration not stated) -11%, CCN(Cc1ccccc1)C(=O)C1CCN(c2ncnc3c2nc2n3CCCCC2)CC1 20.5%, Cn1c(CNC(=O)CSc2n[nH]c(-c3ccccc3Cl)n2)nc2ccccc21 -1.73%, COc1cc(OC)c(OC)cc1CNCCSc1nnnn1-c1ccccc1 4.17%, Cc1ccc(-n2cc(-c3ccccc3)c3c(NC4CCCC4)ncnc32)cc1 -9.45%, CN1CCN(C(=O)Cn2ncc3c4ccccc4n(Cc4ccc(F)cc4)c3c2=O)CC1 -7.21%, COc1cc2c(cc1OC)C(COc1ccc(F)cc1)N(C(=O)c1cccc(F)c1)CC2 (configuration not stated) 21.4%, COc1cc(OC)c(NC(=O)c2cn(C3CCCC3)c(=O)c3c2c2ccccc2n3C)cc1Cl 4.69%, Cc1cc(N(CCO)Cc2ccccc2)n2nc(-c3ccc(C(C)(C)C)cc3)nc2n1 -4.1%, Cc1cccn2c(=O)c(/C=C(\C#N)c3nc4ccccc4s3)c(Oc3ccc(F)cc3)nc12 -17.2%, Cc1noc(/C=C/c2cccs2)c1S(=O)(=O)N1CCC(C(=O)NCc2ccc(Cl)cc2)CC1 3.39%, COc1cccc(C(=O)Nc2ccccc2OCc2cc(=O)n3ccccc3n2)c1 12.3%, CCCOc1ccc(C2C(=O)N(C3CCCCCC3)CC(=O)N2CCC2=CCCCC2)cc1OC (configuration not stated) 14.4%, CCOCCn1ccc2c(OCC(=O)Nc3cccc([N+](=O)[O-])c3)cccc2c1=O -9.15%, COc1ccccc1CN1CCNC(=O)C1=O 1.64%, COc1ccc(NC(=O)C(CC(C)C)NC(=O)C2CCCCC2)cc1 (configuration not stated) 2.35%, COc1ccccc1NC(=O)Cn1c(=O)n(-c2cccc(C)c2)c(=O)c2c1c1cc(C)ccc1n2C 4%, O=C(Cn1ncc2c3ccccc3n(Cc3ccccc3)c2c1=O)NC1CCCCCC1 -8.55%, CCOc1ccc(CN2CCc3nc(N4CCN(c5ccccn5)CC4)ncc3C2)cc1OC 11.2%, Cn1c(=O)c2cc(C(=O)NC3CCCCCC3)sc2c2ccccc21 -15.7%, CCCc1noc(-c2ccc(NCc3ccc(C)cc3)c([N+](=O)[O-])c2)n1 9.84%, CCCc1cnc2c(c1SCc1cccc(F)c1)c(=O)n(C)c(=O)n2C -21.1%, Cc1ccccc1-c1cc2nccc(-c3cc(Cl)ccc3O)n2n1 -1.62%, Cc1ccc(C(=O)c2cn(Cc3ccccc3C)c3nc(C)ccc3c2=O)cc1 -2.49%, COc1ccc(-c2cn3c(n2)sc2cc(C(=O)NCc4cccc(F)c4)ccc23)cc1 1.86%, Cc1nc(C)c(CCNS(=O)(=O)c2ccc(F)cc2)s1 4.8%, Cc1ccc(NC(=O)CN2C(=O)COc3ccc(S(=O)(=O)NC4CCCC4)cc32)c(Cl)c1 -12.8%, CCCCNC(=O)CSc1nc2cc3c(cc2c(=O)n1CCCCCC(=O)NCc1ccc(OC)cc1)OCO3 -3.12%, COc1ccc(CNC(=O)c2cnc3sc(N4CCCC4)nn3c2=O)c(OC)c1 5.45%, CCc1ccc(Nc2nnc(-n3nc(C)cc3C)c3ccccc23)cc1 -0.752%, COc1ccc(-c2nc(SCC(=O)NC3CCCC3)c(-c3ccc(C)cc3)[nH]2)cc1OC 53.4%, CCOc1ccc(NC(=O)C(=O)NCC(c2cccnc2)N2CCc3ccccc32)cc1 (configuration not stated) 6.5%, COc1ccc(C2CC(=O)N(CC(=O)Nc3ccc(C)c(Cl)c3)c3ccccc3S2)cc1OC (configuration not stated) 24.9%, CCOC(=O)C1CCCN(S(=O)(=O)c2ccc3c(c2)oc(=O)n3C)C1 (configuration not stated) -7.77%, COc1ccc(N(Cc2cccs2)C(=O)Nc2cccc(Cl)c2)cc1 2.85%, COc1ccc(CNC(=O)Cc2csc3nc(-c4ccc(F)cc4)cn23)cc1 -28.1%, O=C(CSc1ncc2c(n1)-c1ccccc1N(Cc1ccc(F)cc1)S2(=O)=O)NCCc1ccccc1 2.3%, Cc1cn2c(=O)cc(COc3ccc(NC(=O)COc4ccccc4)cc3)nc2s1 -4.87%, COc1cc(NC(=O)CN(c2cc(C)cc(C)c2)S(=O)(=O)c2c(C)[nH]c(=O)[nH]c2=O)cc(OC)c1 0.693%, C#CC(C)(CC)NC(=O)Cn1nnc(-c2ccc(OCc3c(F)cccc3Cl)cc2)n1 (configuration not stated) 6.59%
